The source of these data is ChEMBL document CHEMBL3301361, “Experimental in vitro DMPK and physicochemical data on a set of publicly disclosed compounds”.

Molecules are shown by their SMILES.

As a reminder, the logD is lipophilicity at a set pH, counting ionised and neutral species. Read a low logD as lower lipophilicity.

One series is described as follows: physchem. The following applies: octan-1-ol/water, pH 7.4.
The compound `CCOC(=O)c1ccc(CCN2CCN(c3ccc(C)nn3)CC2)cc1` returned a logD of 2.58.

`O=C(NC1CCS(=O)(=O)C1)c1ccc(Oc2ccc(C#C[C@]3(O)CN4CCC3CC4)cc2)cc1` (some centres not stated): the logD was 1.64.

For `CCNC(=O)C[C@H]1N=C(c2ccc(Cl)cc2)c2cc(OC)ccc2-n2c(C)nnc21`, the logD worked out at 2.42.

As for `O=C(O)c1cc2cc(C(F)(F)F)ccc2n1Cc1ccc(Cl)c(Cl)c1`, the logD was 3.07.

Still in this series, the particulars now being: octan-1-ol/water, pH 7.4, LogD7.4.
Compound `CC(O)(C(=O)Nc1ccc2c(c1)-c1ccccc1S2(=O)=O)C(F)(F)F` (configuration not stated) gave a pH-dependent lipophilicity (logD) of 3. The compound `CCN(C(=O)Cc1ccc(S(N)(=O)=O)cc1)C1CCN(CCC(c2ccccc2)c2ccccc2)CC1` yielded a pH-dependent lipophilicity (logD) of 2.4. On the same count and under the same terms, next, `CN(C(=O)Cc1ccc(S(N)(=O)=O)cc1)C1CCN(CCC(c2ccccc2)c2ccccc2)CC1`: 2.3. The same measure, in the same setting: for `O=C(Nc1cccc(O)c1)c1ccc(OCCCN2CCCC2)cc1OCc1cccc(F)c1` the value was 3.15; for `CCOC(=O)c1ccc(OCCC2CCN(c3ccc(C)nn3)CC2)cn1`, 2.63.

In the case of `COc1cc2c(Nc3ccc(Cl)cc3F)ncnc2cc1OC[C@@H]1CCCN(C)C1`, the pH-dependent lipophilicity (logD) was 2.9. As to `Nc1n[nH]c2ncc3c(c12)CCCCCC3`, the logD stood at 2.54. `O=C(O)c1ccc(NC(=O)c2cc(OCc3ccccc3)cc(OCc3ccccc3)c2)nc1`: the logD turned out to be 2.7. On the same count and under the same terms, for `CCN(C(=O)Cc1ccc(S(C)(=O)=O)cc1)C1CCN(CCC(c2ccc(F)cc2)c2ccc(F)cc2)CC1` the value was 3.21; for `Cc1ccc(NC(=O)c2cscn2)cc1-n1cnc2ccc(N3CCN(C)CC3)cc2c1=O`, 2.06; for `Oc1cc(-c2ccco2)nc2ccccc12`, 2.21. In the case of `N#CCNC(=O)[C@@H]1CCCC[C@H]1C(=O)N1CCc2[nH]c3ccc(F)cc3c2C1`, the logD was determined as 2.77. Take `CN(C)C(=O)[C@H](Cc1ccccc1)NC(=O)c1cc2ccsc2[nH]1`: the logD was 3.1. Compound `COc1cc(-c2nc(N3CCOCC3)cc(C3(S(C)(=O)=O)CC3)n2)c2cc[nH]c2c1` displayed a logD of 2.4. In turn, `Nc1ccccc1NC(=O)c1ccc(-c2ncc(CN3CCCCC3)s2)cc1` registered a logD of 2.82. Take `COc1cc(C(=O)O)ccc1Cc1cn(C)c2ccc(NC(=O)CC3CCCC3)cc12`: the logD came out at 2. `NC(=O)c1cc(-c2ccccc2)sc1N` gave a logD of 2.7.

In turn, `COc1cc2ncnc(Nc3cccc(Cl)c3F)c2cc1OC1CCN(S(C)(=O)=O)CC1` gave a logD of 2.82. In turn, `COc1ccc(C(=O)Nc2c(Cl)cncc2Cl)c2cccnc12` had a logD of 2.09. Compound `NC(=O)CN1C(=O)C(NC(=O)c2cc3cc(Cl)sc3[nH]2)Cc2ccccc21` (configuration not stated) gave a logD of 3.22.

`CCNC(=O)c1ccc(CN2CCC(c3ccc(C(=O)Nc4ccccc4N)cc3)CC2)cc1` came in with a logD of 2.24.

For `CN(C)CC(O)COc1ccc(Nc2nccc(Nc3ccc(Cl)cc3)n2)cc1` (configuration not stated), the logD stood at 2.6.

With `CS(=O)(=O)n1c2ccccc2c2cc(NC(=O)N3CCOCC3)ccc21`, the log distribution coefficient (logD) is 2.7.

`Cc1ccc(NC(=O)c2cccc(N(C)S(C)(=O)=O)c2)cc1NC(=O)c1ccc2ncccc2c1` displayed a logD of 2.8. The compound `Cc1cc2n[nH]c(=O)n2c2ccccc12` registered a logD of 2.35. Same read-out and setting: next, `Cc1csc(NC(=O)c2cc(Sc3nncn3C)ccc2N)n1`: 2.3; `NC(=O)Nc1sc(-c2ccccc2)cc1C(=O)N1CCOCC1`: 2.24; `Cc1ncc(-c2nc(Nc3ccc(C(N)=O)cc3)ncc2F)n1C(C)C`: 2.7.

`Cc1ncc(-c2ccnc(Nc3ccc(C(=O)N(C)C)c(F)c3)n2)n1C(C)C`: the logD is 2.74. Turning to `COc1cc2ncc(C(N)=O)c(Nc3ccc(F)cc3F)c2cc1NCCN1CCCCC1`, the logD was 2.52.

`CCn1c(-c2ccnc(Nc3ccc(C(=O)NC)cc3)n2)cnc1C` returned a logD of 2.53. Take `CNS(=O)(=O)c1ccc(Nc2nccc(-c3cnc4cccnn34)n2)cc1`: the logD was determined as 2.8. The compound `C[C@@H](CO)Oc1cc(Oc2ccc(S(C)(=O)=O)cc2)cc(C(=O)Nc2nccs2)c1` displayed a logD of 2.63.
